Source: the supplement of paper PMC10126150
Sequences with one replicate were seen in a single cluster, so their values are uncertain.

System: ATP
Experiment: switch fluorescence ratio, 500 uM ATP over buffer (Cy3 cluster intensity, sum of 5 cycles each) (fold (ratio)); higher = stronger signal-on switching upon ATP binding; sequences stand for … in TCGTCGGCAGCGTCAGATGTGTATAAGAGACAGTTTTTTTTTTTTTTTTTTTTTTTTT…TC
Conditions: aptamer strand: ATP DNA aptamer (quencher-CACCTGGGGGAGTATTGCGGAGGAAGG + anchor), 100 nM annealed; ATP concentration: 500 uM; one replicate
Method in brief: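 Cy3-labelled switching-strand clusters on a modified Illumina MiSeq flow-cell were annealed to 100 nM quencher-labelled ATP aptamer, imaged in selection buffer, then imaged after 15 min with 500 uM ATP at 22 °C. Five buffer/ATP cycles ran, with NaOH stripping and re-annealing between them. The fluorescence ratio is summed target-cycle over summed buffer-cycle Cy3 intensity per cluster, averaged per switch-domain sequence. Clusters outside 100-1000 RFU were excluded.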
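Further: ATP exposure 15 min at 22 °C before imaging.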

Row | Sequence | switch fluorescence ratio
1 | TTTCAGCGG | 0.984
2 | CAGAAGCGCA | 1.04
3 | CCTAAATTAA | 1
4 | CCTCCTTCCC | 1.94
5 | ATATCCTCCA | 1.09
6 | TGAGATTCCG | 1.01
7 | CACTACAGCC | 1.07
8 | CATACAGCCT | 1.06
9 | ACAAGCTTCC | 2.9
10 | ATAGTTGAAT | 1.06
11 | TCAGTATTGC | 1.05
12 | TCTTGGACCA | 0.996
13 | CGTGTTATTG | 1
14 | AACAACTTAT | 0.99
15 | CAAGGGTTCT | 0.999
16 | CTTACTAATG | 1.03
17 | AGATATTAAA | 1
18 | AGGGGAGGCG | 1.05
19 | GCACTTACAT | 1.3
20 | TCTG | 0.972
21 | CTACAACTGC | 1.07
22 | CCGTCGATTC | 2.7
23 | TGTTGGGCGT | 1.01

Row | Sequence | switch fluorescence ratio
24 | AGTAACCCCA | 1.08
25 | TAGAAGTAAA | 0.972
26 | CCTTCCGAGT | 4.05
27 | AGCCACAAGT | 1.03
28 | TTTAACGACC | 1.1
29 | CCTGCCCTT | 1.02
30 | GGTATGTATA | 1.03
31 | TACTGATTTC | 1.01
32 | TTGCTCCGTT | 1.68
33 | CCAGGCCACC | 1
34 | ATAGGTCCCT | 1.02
35 | TGGGAAAGAG | 0.957
36 | GACCAAATGC | 1.37
37 | ATCCAATCAA | 1.03
38 | CTACTTCGG | 0.963
39 | GAATGCTACA | 1.02
40 | CGAAGTATAT | 1.16
41 | AATGCTTCCG | 1.1
42 | AGCAGATGGA | 0.989
43 | ACGTAATAGG | 1.24
44 | TACACCGAGT | 1.06
45 | GCTTTTGTAG | 1.02
46 | TCAACGTCAA | 2.19

Row | Sequence | switch fluorescence ratio
47 | CTATAGAGGC | 0.98
48 | AGTCCGATCG | 1.06
49 | CGGGTGATGG | 1.01
50 | TAGATAGGTT | 1.04
51 | AGCTGAGAAC | 0.987
52 | CGGGCGGTTC | 0.984
53 | ACCAGTCTCC | 1.15
54 | TTTTGTAGTC | 1
55 | TCGGGTACA | 0.98
56 | ATGGTTCCCG | 1.01
57 | AGGAATACGA | 2.35
58 | GGGATGACAT | 1.01
59 | CTGACTCATT | 1.22
60 | TCTTAACCGA | 1.03
61 | TCCTTATTGT | 0.974
62 | ACGCACGACT | 1.58
63 | GTTGACGGGC | 0.984
64 | TAGAACCCTG | 1.01
65 | AGTATAATGG | 0.95
66 | TATCCATAAG | 1.02
67 | TTTGGCCGAC | 1.04
68 | TCGGGAGTG | 1.03
69 | AAAACACGAG | 1.01

Row | Sequence | switch fluorescence ratio
70 | TCGCTCTCTG | 0.991
71 | TGAACCGTGC | 1.19
72 | GAAGGAAAGG | 1.05
73 | CTTGTCTGGA | 1.03
74 | GCCGATGTGG | 1.03
75 | TATGGGGGAC | 0.995
76 | CGGTTCGGCA | 0.973
77 | CGCTGCACCG | 0.99
78 | AGTTGGTAGT | 1.01
79 | ATGGTTTTGA | 1.04
80 | TCGGCGGGAC | 1.84
81 | TTCGTGTTTC | 0.996
82 | AGTTTGTTC | 1.01
83 | TATGACGGAA | 1.08
84 | CGGCCGTTAG | 1.03
85 | ACGGGGGCAT | 1.05
86 | CCGACATTGG | 1.06
87 | CATCAAGCGA | 2.3
88 | CATCCGTCCA | 3.6
89 | TGTCATTGG | 0.994
90 | CGGGTACGGG | 0.979
91 | CGGGGACTGT | 1.01
92 | AACTAAATTT | 1.02

Row | Sequence | switch fluorescence ratio
93 | AGGTTGGGA | 0.971
94 | GGTAAGCGAG | 0.98
95 | GGGCCTTCCA | 1.28
96 | CCGGTTGTGT | 0.983
97 | TGGGATCACG | 0.984
98 | TGGTCTTCAC | 0.985
99 | TGGAGACTGT | 1.04
100 | CTGCATAAAA | 1.12
101 | ATACATTGGG | 1.03
102 | CATACTAATA | 1.01
103 | TAATGGGTAC | 1
104 | TCGCACTTGG | 1.08
105 | GACTACGGGA | 2.3
106 | GTAGCACAGT | 1.04
107 | CCCTCCATTG | 1.61
108 | AGCGAAGGTT | 0.972
109 | TATGTAGTTG | 1.03
110 | TAATTCAACG | 0.989
111 | CCCTCATCGC | 1.29
112 | ATCAAGAGGC | 1.01
113 | CAGCTTTCTC | 1.39
114 | CGTGGTAATT | 1.01
115 | CCTTGGCAGG | 1.52

Row | Sequence | switch fluorescence ratio
116 | TTCGGGACAA | 0.984
117 | TGAGTAATAT | 1.78
118 | GAGTTTAGAC | 0.973
119 | GCATGCCATC | 1.04
120 | ACTCTGTCAA | 6.32
121 | GTAGAGGGCT | 1.02
122 | TATCCTTGGA | 0.978
123 | TGAGCGCTGT | 1.02
124 | GGCGCAGCTC | 1.03
125 | ACGGAGAATA | 1.24
126 | GGCTTCGCTG | 1.01
127 | CCTTTAGGCG | 1.24
128 | GTAACTAGGG | 1
129 | ATCATGTCCG | 0.944
130 | ACATTAGTT | 0.999
131 | CCGACCCTTA | 2.49
132 | GGAGATGCCT | 1.02
133 | CTAACGAAGC | 1.39
134 | TGTTTTGGC | 1.01
135 | CAGTTTAAT | 1.01
136 | CCAATTTTTC | 0.944
137 | ACTTGCTTGC | 1.06
138 | TAATTCGTAA | 1.08

Row | Sequence | switch fluorescence ratio
139 | AAGTCTAATG | 0.967
140 | TTACCTAATA | 1.04
141 | AGAAATCTGA | 1.09
142 | ATGGGGTCTC | 1.03
143 | CAATGATTTA | 0.974
144 | CCCCCACGCC | 1.57
145 | AATCTCAAC | 0.98
146 | AGCAAAATCC | 1.26
147 | GTATGTTTCG | 1.04
148 | AAGGCAGGCC | 1.01
149 | AACCAAGTGC | 1.1
150 | TGCGTGTGCA | 0.974
151 | ACAGCATTGG | 1.06
152 | CACCTGCGAA | 1.15
153 | AACTACGCCA | 1.78
154 | TGCTGTTAGT | 0.969
155 | AGCGACGGTA | 1.03
156 | TAAACACCAG | 1.02
157 | GCAGGCAGGG | 1.02
